By IC50 is meant the dose at which the fit gives 50% viability; a fit beyond the top or the lowest dose is shown as a bound at that dose. AUC sums up the same curve from the lowest dose to the 256-fold higher top dose; values near 1 show little effect. For some assays here: Any top dose called inferred is not printed in the source and was worked back from the curve model.
How the values were obtained:
Assay in all cases: Viability of human cancer cell lines after 72 h of drug (GDSC screen)
S-Trityl-L-cysteine = compound: N[C@@H](CSC(c1ccccc1)(c1ccccc1)c1ccccc1)C(=O)O [S-Trityl-L-cysteine]; settings: top dose 5.12 µM; top dose inferred
Experimental: (§1)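 Human cancer cell lines in 384-well plates, medium with 10% serum, drug for 72 h over a 256-fold dose range (nine 2-fold or five 4-fold steps up to the top dose). Adherent lines were fixed and stained with the nucleic acid dye Syto60, suspension lines read with resazurin; signal relative to control wells, capped at 0 and 100%. One two-parameter sigmoid per drug and line, fitted in a mixed model over all curves with the slope shared within a line.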

Phenformin = compound: N=C(N)NC(=N)NCCc1ccccc1 [Phenformin]; settings: top dose 4000 µM; top dose inferred
Experimental: as §1

AG-014699 = compound: CNCc1ccc(-c2[nH]c3cc(F)cc4c3c2CCNC4=O)cc1 [AG-014699]; settings: top dose 5 µM; top dose inferred
Experimental: as §1

Gefitinib = compound: COc1cc2ncnc(Nc3ccc(F)c(Cl)c3)c2cc1OCCCN1CCOCC1 [Gefitinib]; settings: top dose 0.5 µM
Experimental: as §1

NU-7441 = compound: O=c1cc(N2CCOCC2)oc2c(-c3cccc4c3sc3ccccc34)cccc12 [NU-7441]; settings: top dose 2 µM; top dose inferred
Experimental: as §1

Vinorelbine = compound: CCC1=C[C@@H]2CN(C1)Cc1c([nH]c3ccccc13)[C@@](C(=O)OC)(c1cc3c(cc1OC)N(C)[C@H]1[C@@](O)(C(=O)OC)[C@H](OC(C)=O)[C@]4(CC)C=CCN5CC[C@]31[C@@H]54)C2 [Vinorelbine]; settings: top dose 0.064 µM; top dose inferred
Experimental: as §1

XL-184 = compound: COc1cc2nccc(Oc3ccc(NC(=O)C4(C(=O)Nc5ccc(F)cc5)CC4)cc3)c2cc1OC [XL-184]; settings: top dose 5.12 µM; top dose inferred
Experimental: as §1

WHI-P97 = compound: COc1cc2ncnc(Nc3cc(Br)c(O)c(Br)c3)c2cc1OC [WHI-P97]; settings: top dose 10.24 µM; top dose inferred
Experimental: as §1

QL-XI-92 = compound: C=CC(=O)Nc1cc(NC(=O)c2ccc(C)c(NC(=O)c3ccno3)c2)cc(C(F)(F)F)c1 [QL-XI-92]; settings: top dose 10.24 µM; top dose inferred
Experimental: as §1

Erlotinib = compound: C#Cc1cccc(Nc2ncnc3cc(OCCOC)c(OCCOC)cc23)c1 [Erlotinib]; settings: top dose 2 µM
Experimental: as §1

EHT 1864 = compound: O=c1cc(CN2CCOCC2)occ1OCCCCCSc1ccnc2cc(C(F)(F)F)ccc12 [EHT 1864]; settings: top dose 10 µM; top dose inferred
Experimental: as §1

Row | Cell Line | AUC (S-Trityl-L-cysteine) | IC50 (S-Trityl-L-cysteine) [µM] | AUC (Phenformin) | IC50 (Phenformin) [µM] | AUC (AG-014699) | IC50 (AG-014699) [µM] | AUC (Gefitinib) | IC50 (Gefitinib) [µM] | AUC (NU-7441) | IC50 (NU-7441) [µM] | AUC (Vinorelbine) | IC50 (Vinorelbine) [µM] | AUC (XL-184) | IC50 (XL-184) [µM] | AUC (WHI-P97) | IC50 (WHI-P97) [µM] | AUC (QL-XI-92) | IC50 (QL-XI-92) [µM] | AUC (Erlotinib) | IC50 (Erlotinib) [µM] | AUC (EHT 1864) | IC50 (EHT 1864) [µM]
1 | SLVL (B-cell lymphoma, suspension) | 0.765 | 1.97 | 0.528 | 300 | 0.982 | > 5 | 0.985 | > 0.5 | 0.965 | > 2 | 0.652 | 0.0109 | 0.92 | > 5.12 | 0.969 | > 10.2 | 0.913 | > 10.2 | 0.976 | > 2 | 0.986 | > 10
2 | ST486 (Burkitt lymphoma, suspension) | 0.659 | 0.834 | 0.258 | 56.2 | 0.981 | > 5 | 0.973 | > 0.5 | 0.988 | > 2 | 0.449 | – | 0.855 | 3.37 | 0.859 | 6.97 | 0.841 | 5.98 | 0.981 | > 2 | 0.976 | > 10
3 | SU-DHL-6 (B-cell lymphoma, suspension) | 0.601 | 0.564 | 0.376 | 125 | 0.995 | > 5 | 0.995 | > 0.5 | 0.879 | 1.18 | 0.436 | 0.0028 | 0.878 | 2.98 | 0.984 | > 10.2 | 0.872 | 5.74 | 0.969 | > 2 | 0.946 | > 10
4 | SUP-M2 (anaplastic large cell lymphoma, suspension) | 0.685 | 0.915 | 0.666 | 639 | 0.959 | > 5 | 0.99 | > 0.5 | 0.981 | > 2 | 0.527 | 0.00466 | 0.918 | 4.49 | 0.984 | > 10.2 | 0.572 | 0.958 | 0.99 | > 2 | 0.99 | > 10
5 | SUP-T1 (T-cell lymphoblastic leukaemia, suspension) | 0.989 | > 5.12 | 0.553 | 343 | 0.987 | > 5 | 0.978 | > 0.5 | 0.986 | > 2 | 0.518 | 0.00445 | 0.928 | > 5.12 | 0.959 | > 10.2 | 0.933 | > 10.2 | 0.99 | > 2 | 0.949 | > 10
6 | TE-1 (oesophagus, adherent) | 0.735 | 1.83 | 0.86 | > 4000 | 0.896 | > 5 | 0.943 | > 0.5 | 0.971 | > 2 | 0.704 | 0.0177 | 0.982 | > 5.12 | 0.978 | > 10.2 | 0.961 | > 10.2 | 0.596 | 0.247 | 0.874 | > 10
7 | TE-5 (oesophagus, adherent) | 0.88 | > 5.12 | 0.802 | 2330 | 0.947 | > 5 | 0.973 | > 0.5 | 0.958 | > 2 | 0.68 | 0.0138 | 0.984 | > 5.12 | 0.975 | > 10.2 | 0.975 | > 10.2 | 0.843 | 1.74 | 0.97 | > 10
8 | TE-6 (oesophagus, adherent) | 0.795 | 2.85 | 0.81 | 2570 | 0.98 | > 5 | 0.86 | > 0.5 | 0.969 | > 2 | 0.864 | > 0.064 | 0.91 | > 5.12 | 0.939 | > 10.2 | 0.98 | > 10.2 | 0.803 | 1.2 | 0.929 | > 10
9 | TE-8 (oesophagus, adherent) | 0.699 | 1.21 | 0.866 | > 4000 | 0.903 | > 5 | 0.941 | > 0.5 | 0.973 | > 2 | 0.788 | 0.0302 | 0.897 | > 5.12 | 0.931 | > 10.2 | 0.969 | > 10.2 | 0.94 | > 2 | 0.953 | > 10
10 | TE-12 (oesophagus, suspension) | 0.885 | > 5.12 | 0.826 | 3170 | 0.977 | > 5 | 0.882 | > 0.5 | 0.95 | > 2 | 0.937 | > 0.064 | 0.894 | > 5.12 | 0.893 | > 10.2 | 0.94 | > 10.2 | 0.423 | 0.0734 | 0.967 | > 10
11 | WSU-DLCL2 (B-cell lymphoma, suspension) | 0.903 | 4.72 | 0.839 | 2090 | 0.991 | > 5 | 0.984 | > 0.5 | 0.918 | > 2 | 0.992 | > 0.064 | 0.993 | > 5.12 | 0.992 | > 10.2 | 0.95 | > 10.2 | 0.992 | > 2 | 0.986 | > 10
12 | YT (lymphoid neoplasm, suspension) | 0.989 | > 5.12 | 0.059 | < 15.6 | 0.992 | > 5 | 0.992 | > 0.5 | 0.751 | 0.572 | 0.949 | > 0.064 | 0.934 | > 5.12 | 0.992 | > 10.2 | 0.799 | 4.07 | 0.992 | > 2 | 0.979 | > 10

From the supplement of paper PMC4967469
